# Screen size: about 340,000 compounds; about 6,900 (2%) were called active. Cut-off read from the data, not from the text of the source: active = inhibition above about 30%; inactive = below that, where a call was filed. This is a selection; strong and weak results do not stand in their true shares. Entries without a call were filed so in the source.
# Target: D(2) dopamine receptor (Homo sapiens) (UniProt P14416)
# Test: HTS Assay for Allosteric Antagonists of the Human D2 Dopamine Receptor: Primary Screen for Antagonists; note: 0% is about no effect
# Settings: HEK293 TREx D2 cells, calcium flux, dopamine EC80; at 10 µM; stronger effect = higher value
# Procedure, shortened: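 Inhibition of EC80 dopamine-driven calcium flux, recorded kinetically, defines activity here; cells are a tetracycline-induced HEK293 T-REx line expressing force-coupled D2.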
# UniProt P14416, sequence (P14416 whole entry, looked up): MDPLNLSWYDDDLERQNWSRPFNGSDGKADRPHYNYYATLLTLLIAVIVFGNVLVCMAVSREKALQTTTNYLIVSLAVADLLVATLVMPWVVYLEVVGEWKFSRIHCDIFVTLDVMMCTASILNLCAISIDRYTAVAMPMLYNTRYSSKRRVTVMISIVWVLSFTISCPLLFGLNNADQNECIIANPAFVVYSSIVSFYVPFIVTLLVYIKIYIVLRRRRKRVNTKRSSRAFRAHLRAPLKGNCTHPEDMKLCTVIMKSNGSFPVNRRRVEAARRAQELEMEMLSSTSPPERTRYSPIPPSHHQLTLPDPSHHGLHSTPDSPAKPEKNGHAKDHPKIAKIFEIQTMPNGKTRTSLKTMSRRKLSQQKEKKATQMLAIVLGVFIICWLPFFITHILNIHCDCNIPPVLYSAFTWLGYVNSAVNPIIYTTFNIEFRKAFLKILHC
row,SMILES,inhibition
1,Cc1cc2oc(C(=O)N(Cc3ccc(N(C)C)cc3)CC3CCCO3)c(C)c2cc1C (stereo not drawn),9.72%
2,CCC1=Nc2cc(C(=O)NCCCOC(C)C)ccc2Sc2ccc(C)cc21,-2.48%
3,COc1ccc(-c2noc(-c3cc(C(C)C)[nH]n3)n2)cc1,-2.14%
4,CCCCN(C)C(=O)c1ccc2c(c1)N(Cc1cccc(Cl)c1)C(=O)c1ccccc1S2=O (stereo not drawn),-21%
5,CCOC(=O)CSc1nc2cc3c(cc2c(=O)n1CCCCCC(=O)NCc1ccc2c(c1)OCO2)OCO3,-5.81%
6,Cc1cc(C)cc(NC(=O)N2CCN(C)c3ncccc32)c1,8.03%
7,COc1cc(C2Nc3ccccc3-c3nnc(SCc4ccc(Cl)cc4)nc3O2)ccc1OCC(=O)O (stereo not drawn),-0.994%
8,Cc1ccc2c(CC(=O)Nc3ccc(S(=O)(=O)Nc4nc(C)cc(C)n4)cc3)coc2c1,-18.7%
9,CCOc1cccc2sc(NC(=O)c3ccc(S(=O)(=O)N4CCc5ccccc54)cc3)nc12,-5.29%
10,CCc1cccc(C)c1NC(=O)C(CC)Sc1nc2ccncc2[nH]1 (stereo not drawn),16.4%
11,CCCN1CCN(CC2=C(C(=O)OCC)C(c3cccc(OC)c3OC)NC(=O)N2)CC1 (stereo not drawn),-13.1%
12,CCCCc1nn2c(=O)cc(COC(=O)c3ccc(NC(=O)c4cccc(OC)c4)cc3)nc2s1,-16.1%
13,Cc1ccc(NC(=O)N2CCc3c(sc4c3CCCC4)C2c2ccccc2)cc1F (stereo not drawn),-3.37%
14,CSc1ncc(C(=O)NCc2ccccc2Cl)c(C(F)(F)F)n1,2.4%
15,COc1cc(C)ccc1OCCSc1nnc(-c2cccs2)o1,13.8%
16,O=C(/C=C/c1ccccc1)Nc1cc(-c2nc3ccccc3o2)ccc1Cl,1.88%
17,FC(F)(F)c1cccc(N2CCN(Cc3nnc(-c4ccccc4)o3)CC2)c1,2.5%
18,CC(C)c1ccc(-c2noc(SCC(=O)N3CCCCC3)n2)cc1,0.783%
19,CCOc1ccccc1CNC(=O)c1ccc(Cn2c(=O)c3cccn3c3cccnc32)cc1,0.343%
20,CC(=O)Nc1nonc1-c1nnc(SCc2cccc(Br)c2)n1C,4.9%
21,CCCN(CCC)CCCNC(=O)c1nn(C)c2c1CS(=O)(=O)c1ccccc1-2,16.6%
22,COc1ccc2c(c1)Cc1sc(NC(=O)c3cccc(Cl)c3)nc1-2,10.5%
23,CC1CCN(S(=O)(=O)c2ccc3nc(N4CCN(c5ccccc5F)CC4)ccc3c2)CC1,-9.53%
24,COc1ccc(/C=C(\C#N)c2nc(-c3cc4ccccc4oc3=O)cs2)cc1OC,6.96%

row,SMILES,inhibition
1,COc1ccccc1N1CCN(C(=O)c2oc3ccccc3c2N)CC1,8.81%
2,Cc1ccc(-c2onc(C)c2C)cc1S(=O)(=O)NC1CCC(C)CC1 (stereo not drawn),0.439%
3,CCOc1cc(C2CC(=O)Nc3c2c(C)nn3-c2nc(C)cc(C)n2)ccc1O (stereo not drawn),2.87%
4,COC(=O)c1cccnc1-n1c(=O)c2cccnc2n(CC(=O)Nc2cccc(C(F)(F)F)c2)c1=O,13.2%
5,Cc1cc2ccc(C)c(C)c2nc1SCC(=O)c1cccs1,active: 60.4%
6,Cc1cccc(Cc2c(C)nc3nc(SCC(=O)NC4CCCCC4)nn3c2C)c1,8.42%
7,Fc1ccc(-c2noc3ncnc(NCc4cccc(Cl)c4)c23)cc1,3.16%
8,CSc1cccc(NS(=O)(=O)c2ccc3[nH]cc(C(=O)N4CCCCCC4)c(=O)c3c2)c1,-0.576%
9,COc1ccc(/C=C\c2onc(C)c2S(=O)(=O)N2CCC(C(=O)Nc3ccc(C)c(F)c3)CC2)cc1,8.71%
10,CCOC(=O)c1nnc2c(-c3ccc(F)cc3)c(C)nn2c1N,13.2%
11,Cc1ccc(N2CC(NC(=O)Cc3ccc(F)cc3)CC2=O)cc1C (stereo not drawn),-8.21%
12,COc1ccccc1CNC(=O)c1cnn(-c2ccc(F)cc2F)c1C1CCN(C(=O)OC(C)(C)C)CC1,1.57%
13,COCCN1CN=C(NS(=O)(=O)c2ccc(C)cc2)NC1,-20.9%
14,CCN(CC)c1ccc(C2C(C(N)=O)=C(C)Nc3nc(SCc4ccccc4)nn32)cc1 (stereo not drawn),9.48%
15,COc1cccc(CNC(=O)C2CCCN(S(=O)(=O)c3cn(C)cn3)C2)c1 (stereo not drawn),-21.3%
16,Cc1ccc(-n2c(=O)c3cccnc3n2CC(=O)Nc2ccccc2C(F)(F)F)cc1C,-0.474%
17,COc1ccccc1OC(C)C(=O)N1CCN(CCc2ccccn2)CC1 (stereo not drawn),3.73%
18,CC[C@H](C)NC(=O)CCCc1nnc2n(CCC(C)C)c(=O)c3sccc3n12,19%
19,Cc1ccc(C)c(NC(=O)C(NS(=O)(=O)c2ccc3c(c2)CCC(=O)N3)c2ccccc2)c1 (stereo not drawn),-19.6%
20,Cc1ccc(CNC(=O)C2CCN(S(=O)(=O)c3c(C)noc3/C=C/c3ccccc3F)CC2)o1,0.564%
21,COc1ccc(-c2cn3c(n2)sc2cc(C(=O)NC4CCCCC4)ccc23)cc1,15.2%
22,Cc1ccnc(NC(c2cc(C)ccc2O)c2ccc3cccnc3c2O)c1 (stereo not drawn),11.8%
23,COc1ccccc1N1CCN(Cc2cc(COC(C)C)c3cccnc3c2O)CC1,-9.29%
24,CCOC(=O)C1CCCN(C(=O)Cn2nc(C)n3c(cc4c(OC)cccc43)c2=O)C1 (stereo not drawn),-7.73%

# From PubChem BioAssay AID485344 (National Center for Advancing Translational Sciences (NCATS), 2010)
